Results on 90 variants are retold here after the RNAGym collection of RNA variant scans (doi:10.7554/elife.90254).

Read counts are not given, so values of variants with three or more changes are uncertain.

The labels stand for the following.
B1: LINE1-full (parent)
chain: UACGUAGGUGGUUUUCCCCUGAUAGUGCUAAGGGGGCCUGGAAGUUUGGACUGGGCAGAGCUCAACACAGCGUGGCAAAGUGGCUGUGGCUAGACUGCCUCUCUGGAUUCCUCGUCACUCAGCAGGGCAUCUCUGAGAGAAAUGCC

The variants in this data set derive from B1. As to the kind of experiment: self-cleavage, relative activity (ratio to wild type); higher = more cleavage; in vitro, sequencing; the parent is a self-cleaving ribozyme.
Consider U119A A136U A142G, for which the self-cleavage is 1.51.

Consider U112C A124G U143C, for which the self-cleavage was 1.4.

On to U112C G126A A142G, for which the self-cleavage came to 1.53.

Turning to U115A A124U U143A, the self-cleavage was 1.6.

On to A129G A138U U143C, for which the self-cleavage amounted to 1.61.

Turning to U115C A140G A141G, the self-cleavage was determined as 0.95.

As for U119C G122A A124G, the self-cleavage stood at 1.41.

With U112A A124C A140G, the self-cleavage stood at 1.92.

For C120U A136G A142G, the self-cleavage was 1.91.

On to A124U A138G U143A, for which the self-cleavage came to 1.97.

On to G126A A138G A140G, for which the self-cleavage is 0.44.

For G126U A129G A138G, the self-cleavage is 1.81.

A124U U143G C145U: the self-cleavage was determined as 0.88.

Take U112A U119A A124G: the self-cleavage amounted to 0.

Consider U132C U134A A138G, for which the self-cleavage was 1.04.

Consider U134C A142G U143C, for which the self-cleavage turned out to be 1.66.

Regarding U119A U132A A136G, the self-cleavage is 1.57.

In the case of U115C U134A A138U, the self-cleavage was determined as 1.44.

U112A U132A A136U: the self-cleavage was 1.68.

For U112A A124G U143C, the self-cleavage was 2.52.

On to A124G C131U A140G A141G, for which the self-cleavage was 0.8.

C113A U119C A138G: the self-cleavage is 1.56.

As for U134C A140G U143C, the self-cleavage stood at 0.65.

On to U119C A138G U143C, for which the self-cleavage was determined as 2.

U115C U130A U143C: the self-cleavage is 2.48.

For the variant U119C A124G A140G, the self-cleavage stood at 0.62.

Turning to G125A U134C U143C, the self-cleavage was 1.86.

Take C123U A140U A141G: the self-cleavage was 1.7.

In the case of A117C U132C U143C, the self-cleavage turned out to be 1.02.

Take C113U A121G U130A: the self-cleavage amounted to 1.65.

On to C120U U130C C145U, for which the self-cleavage is 1.7.

As for U119C G135A C145A, the self-cleavage was 1.76.

A129G A141U A142G: the self-cleavage came out at 1.5.

With A124U A138G A142U, the self-cleavage stood at 1.58.

For U130C U132C A141G, the self-cleavage was determined as 1.56.

For the variant C118U U132C A138U, the self-cleavage amounted to 0.9.

As to G114A A138C A142C, the self-cleavage was 0.

Consider U112C A129U A136U, for which the self-cleavage worked out at 1.79.

Turning to U119A A121U U132C, the self-cleavage amounted to 1.78.

Turning to U119A A142G U143C, the self-cleavage amounted to 1.62.

Consider A117G A121U A142G, for which the self-cleavage came out at 2.48.

Regarding U119A G127A U130G, the self-cleavage amounted to 1.82.

With C118A U132C A141G, the self-cleavage is 1.39.

For the variant A117G C118A A136G A142C, the self-cleavage stood at 1.38.

In the case of A129G U130A A141G, the self-cleavage was 0.95.

For U132A A138G A140G, the self-cleavage came out at 1.61.

For A117U G137A U143C, the self-cleavage is 1.14.

As for U130A A138G C146U, the self-cleavage was 1.28.

On to U115C A121U A129G, for which the self-cleavage was 1.53.

On to A117G A129G U130C, for which the self-cleavage worked out at 0.77.

With C113U A117C A142G, the self-cleavage came to 1.11.

Take U119C A136G A140G: the self-cleavage stood at 1.69.

On to A117C G122C U130C, for which the self-cleavage turned out to be 1.77.

For the variant U119C C123U A142G, the self-cleavage is 1.37.

For the variant C113U A140G U143C, the self-cleavage came to 0.37.

As for U119A A129G U134C, the self-cleavage is 1.58.

Regarding A121U U132C A138G C145U, the self-cleavage worked out at 1.37.

A138G A140U A142U: the self-cleavage is 1.86.

Turning to A121U U130C A138G, the self-cleavage was 2.23.

Regarding U119A C131U U134C, the self-cleavage was determined as 1.07.

As to U115C G122A A129G A140U, the self-cleavage came out at 1.65.

Regarding A121G A141G U143C, the self-cleavage was 2.55.

A117C A121U U132C: the self-cleavage came out at 2.21.

Turning to U115C U132C U143A, the self-cleavage was determined as 2.3.

Consider A117U A121U A136U, for which the self-cleavage was determined as 1.09.

As to A117U A124U U130A, the self-cleavage came out at 1.45.

In the case of U112C G139U A141G, the self-cleavage was found to be 1.23.

On to A129U A138G A140G, for which the self-cleavage is 1.25.

Consider G127C A129U U130C, for which the self-cleavage stood at 0.28.

For the variant U119A C120U A124G, the self-cleavage amounted to 0.93.

C113U U130C U143C: the self-cleavage was 2.1.

As to U119C A124G U132A, the self-cleavage worked out at 1.09.

On to A121U U130A A142G, for which the self-cleavage stood at 1.19.

For A124C U134C A142G, the self-cleavage came out at 2.45.

U130C A136G A141G: the self-cleavage is 2.03.

For the variant C113U U119C A136G U143C, the self-cleavage came out at 1.65.

Take C111U C118U A141G: the self-cleavage was 1.5.

Consider A129U U130C A141G, for which the self-cleavage turned out to be 1.79.

As for U119C A140U A142G, the self-cleavage came to 1.38.

For A121G A124U U132C U143C, the self-cleavage was found to be 1.78.

As to A124G U134C A141G, the self-cleavage came to 1.23.

In the case of U112C A117G A129C, the self-cleavage stood at 1.67.

On to U132C A140G U143C, for which the self-cleavage is 1.45.

As to G114U A121G A129U, the self-cleavage is 1.13.

For the variant U112C U119C C123G A142G C145G, the self-cleavage came to 1.96.

For A117G A121U A138G A142G, the self-cleavage was found to be 1.3.

In the case of G114U A136G A142G, the self-cleavage was 1.49.

For the variant A140U A142G U143C, the self-cleavage is 2.04.

Regarding U115A A138G U143C, the self-cleavage is 0.97.

On to A117G U119C U130C, for which the self-cleavage worked out at 0.61.
